The supplement of paper PMC4166925
± gives the standard deviation of the averaged measurements. In all, about 33,000 sequences were measured (“E-score (dimensionless, -0.5 to 0.5)”: median about -0.046, highest 2% from about 0.36 on). The list shows a part of the results.

Each sequence was assayed on T1, SpTbr T-box DNA-binding domain (GST fusion) (assay: PBM E-score of 8-mer (E-score (dimensionless, -0.5 to 0.5)); Tbr is Tbrain of the sea star Patiria miniata (Pm) or the sea urchin Strongylocentrotus purpuratus (Sp); higher = stronger binding preference; most listed sequences are background and not binding sites). Details: the construct has about 5 more residues each side.
T1 sequence: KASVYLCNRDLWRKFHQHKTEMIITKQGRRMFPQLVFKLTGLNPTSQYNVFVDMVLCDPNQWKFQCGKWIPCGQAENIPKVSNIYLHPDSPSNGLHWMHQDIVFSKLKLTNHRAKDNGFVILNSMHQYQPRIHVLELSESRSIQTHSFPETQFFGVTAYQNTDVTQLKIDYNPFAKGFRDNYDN
Procedure, shortened: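 Using the Universal PBM Analysis Suite, every ungapped 8-mer received an enrichment E-score averaged over duplicate arrays. Probe intensities came from double-stranded Universal Agilent oligonucleotide arrays incubated with 200 nM GST-fused Tbr T-box DNA-binding domain in PBS (pH 7.5). That protein was expressed in BL21 E. coli at 20 °C and purified by glutathione affinity chromatography.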

Sequence | PBM E-score of 8-mer
AACGGGGG | 0.153 ± 0.011
ATGGTGTG | 0.39 ± 0.023
ACTTCCAC | -0.0342 ± 0.034
GCTTTCAC | 0.311 ± 0.012
ACGCGAGT | 0.107 ± 0.072
GGTCGACA | 0.203 ± 0.045
CATAGCAG | 0.0783 ± 0.072
AGATATAG | -0.138 ± 0.025
AGGTCTAG | -0.252 ± 0.04
GATACCAC | -0.105 ± 0.034
ACGAGCTC | -0.201 ± 0.018
TGTCTGAA | 0.189 ± 0.047
ATAGTGTA | 0.0763 ± 0.038
GGGATACC | -0.246 ± 0.071
CACAAGAA | -0.103 ± 0.0099
AAGCAAAC | -0.043 ± 0.0047
AGTTTTCA | -0.0351 ± 0.023
AAGCTTCT | -0.174 ± 0.06
AGGATGGG | -0.238 ± 0.097
AGTAACCG | -0.141 ± 0.032
CGTTGGAA | -0.178 ± 0.065
AACATTGC | -0.0517 ± 0.018
CCTCCCCA | 0.0422 ± 0.042
AACTCAGC | -0.111 ± 0.16
CGTAGGGA | -0.119 ± 0.043

Sequence | PBM E-score of 8-mer
CAATGAAA | -0.0996 ± 0.026
ACCATTCC | -0.173 ± 0.019
ACGGACAG | -0.0366 ± 0.0078
AGCAAGGG | -0.109 ± 0.0078
GAGCCGGA | -0.275 ± 0.019
AAAGAACG | -0.0627 ± 0.059
CTTTGTAA | -0.125 ± 0.01
AACGTACC | -0.362 ± 0.0053
CGCACATC | 0.338 ± 0.022
CTCTCGTC | 0.00785 ± 0.001
AATGGCCG | -0.0624 ± 0.011
ATATCGTG | -0.00237 ± 0.011
AAGGAACA | -0.0728 ± 0.0028
GAAGTGCC | 0.252 ± 0.013
GGGATTAC | -0.0663 ± 0.035
GTCATCCA | 0.0416 ± 0.0033
ATTCGGCC | -0.0848 ± 0.03
TATGCATA | -0.194 ± 0.18
CTCAGAGA | -0.274 ± 0.011
TGGTTAAA | -0.0311 ± 0.097
ACTTTCCA | 0.113 ± 0.099
CATTTAGA | -0.0495 ± 0.043
GTGAATAA | 0.297 ± 0.048
ATGCTTTG | 0.0712 ± 0.058
AGGACCCT | -0.205 ± 0.089

Sequence | PBM E-score of 8-mer
CGTAAAAA | -0.0432 ± 0.096
AGACACAA | 0.11583 ± 7.1e-06
ATAATTAT | -0.166 ± 0.015
CCTCTACC | -0.103 ± 0.045
ACCTTTCT | 0.00707 ± 0.012
ATAAATGC | -0.0319 ± 0.057
CTTGTGCC | -0.0432 ± 0.012
ACAGAGGG | -0.118 ± 0.029
ATTGTATC | -0.0284 ± 0.019
ATCAACCG | -0.199 ± 0.015
CCCCAGGC | -0.219 ± 0.014
CTCACGGA | 0.0974 ± 0.031
ATTGGGAC | -0.269 ± 0.026
ACACTGCC | 0.0459 ± 0.067
CCTTGCGC | 0.131 ± 0.0037
CCTACACG | 0.0185 ± 0.081
ACAGCAGA | -0.106 ± 0.047
CCAAAGGG | -0.173 ± 0.035
GGACATCC | -0.105 ± 0.073
GCTTCCCA | 0.0719 ± 0.0025
CTATCAAC | 0.0735 ± 0.067
TTAATGAA | -0.153 ± 0.044
CTATGCTA | -0.0322 ± 0.017
ATATCGAT | 0.0225 ± 0.016
AAAGCTTC | -0.0192 ± 0.087

Sequence | PBM E-score of 8-mer
ATGTTGAC | 0.13 ± 0.044
GAGTCTAC | -0.216 ± 0.026
CAGGGGGA | -0.201 ± 0.088
CAGTGCAA | 0.0036 ± 0.071
GTTTCTAA | -0.0313 ± 0.023
CAAATTTG | -0.0145 ± 0.092
TACACCCA | 0.105 ± 0.011
GGCGTTTA | 0.0351 ± 0.013
GTTTACTA | -0.113 ± 0.016
ATAAATTA | -0.0716 ± 0.0029
GTTGACGA | 0.279 ± 0.0033
CACCATAC | -0.065 ± 0.011
ACCAGTCA | -0.0447 ± 0.044
CCAATCCC | -0.008 ± 0.041
CAACTCTC | -0.0237 ± 0.0004
AAGTTAAC | 0.000455 ± 0.059
CGTATGTC | -0.00215 ± 0.014
ACTATCTC | -0.0871 ± 0.021
CTATTTTA | -0.187 ± 0.052
ATCGTTAA | 0.202 ± 0.037
CCAACAAG | 0.187 ± 0.0044
AGTGGTCC | -0.187 ± 0.032
CCTGGTAC | -0.00179 ± 0.032
GTAATGTA | -0.265 ± 0.034
CGTTACAG | 0.0884 ± 0.12

Sequence | PBM E-score of 8-mer
GTTACACA | 0.203 ± 0.0028
AGGGTTCA | -0.137 ± 0.054
ACTGTACT | -0.0426 ± 0.11
ATAATAGG | -0.0475 ± 0.033
ATCATGTC | 0.0741 ± 0.013
CAGAGGGG | -0.238 ± 0.036
CTCTATTA | -0.0121 ± 0.1
AAGGCTAG | -0.218 ± 0.07
CGTTGGCC | -0.214 ± 0.079
ACCCTGTA | -0.0127 ± 0.058
CCCACGAC | 0.135 ± 0.013
TCGGGGAA | -0.221 ± 0.021
CGGGTTAG | -0.144 ± 0.074
AATTGAGC | -0.197 ± 0.0054
CCAACTCC | -0.0214 ± 0.0039
GAGTGAGC | -0.0323 ± 0.13
GGGAACAA | -0.124 ± 0.021
CGAGGGAA | -0.123 ± 0.058
CTATTGGC | 0.133 ± 0.055
AGTCCGCG | 0.174 ± 0.034
AAGGTCAG | -0.148 ± 0.0046
AAGCACTC | -0.0686 ± 0.056
GCGGAGCA | -0.00457 ± 0.049
AATTTCAC | 0.269 ± 0.02
ACTCGTCT | -0.105 ± 0.051

Sequence | PBM E-score of 8-mer
ACATCTTA | 0.00684 ± 0.033
CGCATAGC | 0.0118 ± 0.061
ACGAAGAT | -0.0932 ± 0.022
ACACTGTC | 0.29875 ± 0.00028
GAGAATTA | -0.00577 ± 0.11
ACCTCCGG | -0.171 ± 0.027
AGAATCCA | -0.0617 ± 0.035
AAGATATT | -0.111 ± 0.053
GTATGTTA | 0.133 ± 0.013
GATTAGTA | -0.0363 ± 0.088
CGACTCGC | 0.173 ± 0.053
GATTAATA | 0.028 ± 0.038
GGGGAATA | -0.207 ± 0.0041
TAAAACAA | -0.112 ± 0.0035
ATAACGAC | 0.169 ± 0.021
ACCAGACC | -0.126 ± 0.014
CCAACGAC | 0.0917 ± 0.022
GTCTCAGA | -0.0914 ± 0.014
CGATAAAC | 0.138 ± 0.063
GTACCGTA | -0.33 ± 0.0053
GATTGGGC | -0.174 ± 0.042
GGAAAACA | -0.149 ± 0.051
CTCTATCA | 0.0624 ± 0.021
CAAACGTA | -0.157 ± 0.026
ACTGACCT | -0.178 ± 0.011

Sequence | PBM E-score of 8-mer
AGGCTACC | -0.326 ± 0.017
ATGTTTTG | 0.00867 ± 0.052
CAGTACGG | -0.315 ± 0.0061
GCGTCAGC | 0.225 ± 0.024
GCTTGCCC | -0.201 ± 0.049
CGCTATAC | 0.121 ± 0.022
AAATTGCA | -0.0681 ± 0.087
ATTGAGTC | -0.00524 ± 0.047
GTCTACGA | -0.0784 ± 0.053
AGTTGTCC | -0.136 ± 0.07
CGGAACGA | -0.177 ± 0.022
GTCTAACA | 0.138 ± 0.0084
AGGACAAA | 0.154 ± 0.076
GCGCGATA | 0.288 ± 0.014
TGCAGAAA | -0.264 ± 0.026
AAACCGCA | 0.0197 ± 0.063
GACCCTGA | 0.0778 ± 0.024
CATCTATC | -0.159 ± 0.038
TCGGGACA | -0.0471 ± 0.01
AGTAGGTG | 0.3972 ± 0.0024
CACGTTCA | 0.14 ± 0.0047
CCCGGTTC | -0.0898 ± 0.054
